# In the supplement of paper PMC12217912:
# Some of the results follow. The full chains were built here from the parent and the listed change. Inactive controls read about 0.05.
# B1: TEV protease; numbered along this chain (parent)
# chain: MGESLFKGPRDYNPISSSICHLTNESDGHTTSLYGIGFGPFIITNKHLFRRNNGTLVVQSLHGVFKVKDTTTLQQHLVDGRDMIIIRMPKDFPPFPQKLKFREPQREERICLVTTNFQTKSMSSMVSDTSCTFPSGDGIFWKHWIQTKDGQCGSPLVSTRDGFIVGIHSASNFTNTNNYFTSVPKNFMELLTNQEAQQWVSGWRLNADSVLWGGHKVFMVKPEEPFQPVKEATQL
# Variants of: B1
# Assay: raw area under fraction-flipped curve 0-4 h after induction (AUC4h, not background-subtracted), DNA-recorder readout of cleavage of the substrate (dimensionless); higher = more cleavage of the substrate by the protease variant
# Settings: temperature: 34 °C; time window: 0-4 h after rhamnose induction
# 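Note: Bxb1 expression induced with 0.2% (w/v) L-rhamnose at OD600 near 0.5, cultures sampled hourly, flipped fraction per protease–substrate barcode pair counted by paired-end Illumina sequencing.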
Variant,area with substrate CNLYFQS,area with substrate FNLYFQS,area with substrate GNLYFQS,area with substrate HNLYFQS,area with substrate INLYFQS,area with substrate LNLYFQS,area with substrate MNLYFQS,area with substrate NNLYFQS,area with substrate PNLYFQS,area with substrate SNLYFQS,area with substrate TNLYFQS,area with substrate VNLYFQS,area with substrate WNLYFQS,area with substrate YNLYFQS,area with substrate KNLYFQS,area with substrate QNLYFQS,area with substrate RNLYFQS
K221N,0.0657,0.0469,0.058,0.05,0.0665,0.0631,0.0543,0.0297,0.0626,0.0697,0.0642,0.0585,0.0594,0.056,,,
A232P,0.0747,,,,,0.0565,0.09,0.0736,0.0877,0.0721,,,0.051,,0.064,,
T233D,0.0575,,,0.054,0.0496,0.0514,,,0.0663,,0.0614,,0.068,0.072,0.0709,0.0633,
T233S,0.0769,0.057,,0.0756,,0.065,0.0577,0.0636,0.104,0.0711,0.0659,,0.0883,0.0622,,,
K230G,0.0738,,,0.0674,,0.0588,0.0667,,0.0678,0.0653,0.085,,0.054,0.0654,,,
T192Y,,0.0565,,,,,,,0.0792,,0.0584,,0.0649,0.0334,,,
L235M,0.063,,0.0616,0.0675,0.0599,0.0546,0.0835,,0.0682,0.069,,,0.062,0.0535,,,
R160A,,0.0768,0.0677,,0.0588,,,,0.0756,0.0696,0.0573,0.0671,0.0722,0.0648,,0.0654,
M219D,0.0472,0.0667,0.0615,0.0596,0.0611,0.0568,0.0539,,0.0565,0.0554,0.0631,,0.0656,,0.064,0.0651,
M219Q,0.0561,0.0418,0.0526,0.0603,0.0495,0.0658,0.0562,0.0634,0.0595,,0.0669,,0.056,,,,0.0839
M219L,0.0645,,0.0643,,,0.0563,0.0461,,,0.07,0.0594,,0.092,,0.061,,
M219R,0.0622,0.0615,0.0623,0.0624,0.0588,0.0549,0.0561,0.0605,,0.0556,0.0723,0.0525,0.0587,0.0641,,,0.0482
T176L,,0.0602,0.0505,0.0529,,0.0524,0.0646,,0.0586,0.0635,0.0596,,0.0571,0.0516,,0.0448,
W203R,0.0523,0.0554,,0.0686,0.0533,0.0503,0.0602,0.0499,0.065,0.0545,0.0601,,0.0527,,0.0631,,
P228N,0.0654,,0.056,0.0682,0.0693,0.0641,0.0593,,0.0613,0.0778,0.0612,0.052,,0.0559,,,
E223F,0.0541,,,0.0873,0.0642,0.0658,0.056,,0.0584,0.0673,0.0952,,,0.0739,,0.085,
